The supplement of paper PMC9334596
Where “and” joins values, the source holds several entries; their conditions need not be identical. Equal values may be shown once. The full ranking holds about 5,300 compounds; the median of “PER2::LUC luminescence relative to vehicle control” is about 0.96, and the highest 2% start at about 1.3. Some of the results follow.

Test system: mPer2Luc MEF
Assay: PER2::LUC luminescence relative to vehicle control (fold of vehicle); higher = higher PER2::LUC reporter signal
Details: 10 µM
Method in brief: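 The reported values are PER2::LUC luminescence as fold of vehicle control in mouse embryonic fibroblasts carrying the mPer2Luc reporter. Cells were seeded at ~3000 per well in 384-well plates in DMEM with 10% FBS at 37 °C and 5% CO2, and compounds were added at 10 μM 48 h later. ONE-Glo luminescence was read 24 h and 30 h after treatment.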

Row | SMILES | PER2::LUC luminescence (time after treatment 24 h) | PER2::LUC luminescence (time after treatment 30 h)
1 | CCN(CC)CCNC(=O)COc1ccc(OC)cc1 | 1.38 | 1.49
2 | Cc1nc2n(c(=O)c1CCN1CCC(c3noc4cc(F)ccc34)CC1)CCCC2O (stereo unspecified) | 0.965 | 0.795
3 | CC1(C)S[C@@H]2[C@H](NC(=O)Cc3ccccc3)C(=O)N2[C@H]1C(=O)O | 1.06 and 1.17 | 1.72 and 0.949
4 | CCCCc1nc(Cl)c(CO)n1Cc1ccc(-c2ccccc2-c2nnn[nH]2)cc1 | 1.04 and 0.621 | 0.92 and 0.992
5 | COC(=O)C[C@H]1C(C)(C)[C@@H](OC(C)=O)[C@@H]2CC3C4CC(=O)O[C@@H](c5ccoc5)[C@]4(C)CCC3[C@@]1(C)C2=O (stereo partly specified) | 0.886 | 0.963
6 | C=CCCCCCCCCC(=O)O | 0.992 and 1.02 | 1.02 and 0.927
7 | O=C(Nc1cccc2cccnc12)c1ccc(N2C(=O)[C@@H]3[C@H](C2=O)[C@@H]2C=C[C@H]3C2)cc1 | 1.01 | 0.982
8 | COc1c(O)cc2oc3cc(O)c(CC=C(C)C)c(O)c3c(=O)c2c1CC=C(C)C | 0.0883 | 0.17
9 | CCOc1cc(N)c(Cl)cc1C(=O)NCC1CN(Cc2ccc(F)cc2)CCO1 (stereo unspecified) | 1.02 | 0.976
10 | O=c1cc(-c2ccc(O)c(O[C@@H]3O[C@H](CO)[C@@H](O)[C@H](O)[C@H]3O)c2)oc2cc(O[C@@H]3O[C@H](CO)[C@@H](O)[C@H](O)[C@H]3O)cc(O)c12 | 1.07 | 1.04
11 | Cc1cccc(Nc2ccccc2C(=O)O)c1C | 0.741 | 1.01
12 | COc1ccc(/C=C/C(=O)c2cc(O)ccc2O)cc1 | 0.754 | 0.827
13 | CCC(C)n1ncn(-c2ccc(N3CCN(c4ccc(OCC5COC(Cn6cncn6)(c6ccc(Cl)cc6Cl)O5)cc4)CC3)cc2)c1=O (stereo unspecified) | 1.1 | 1.05
14 | C[n+]1ccccc1/C=N/O | 1.07 and 0.839 | 1.07 and 0.857
15 | CN(C)CCNC(=O)c1cccn2c(=O)c3cc4ccccc4cc3nc12 | 0.72 | 0.519
16 | O=C(O)CCNC(=O)c1ccc(/N=N/c2ccc(O)c(C(=O)O)c2)cc1 | 0.974 and 1.05 | 0.997 and 0.871
17 | C[C@H]1[C@H](OC(=O)CCC(=O)O)O[C@@H]2O[C@@]3(C)CC[C@H]4[C@H](C)CC[C@@H]1[C@@]24OO3 | 0.43 | 0.509
18 | CC(N)C(=O)OC(C)(C)Cc1ccc(Cl)cc1 (stereo unspecified) | 0.885 and 0.864 | 0.942 and 0.862
19 | CC(C)Nc1nc2cc(Cl)c(Cl)cc2n1[C@H]1O[C@@H](CO)[C@H](O)[C@@H]1O | 0.987 | 0.975
20 | CN(CCOc1ccc(C[C@H](Nc2ccccc2C(=O)c2ccccc2)C(=O)O)cc1)c1ccccn1 | 1.01 | 1.07
21 | C=CCSCC=C | 1.02 | 1.03
22 | Cc1ccc(-c2c(-c3nn(C)c4ncnc(N5CC[C@H](N6CCCCC6)C5)c34)cnn2C)cc1 | 0.974 | 1.06

Row | SMILES | PER2::LUC luminescence (time after treatment 24 h) | PER2::LUC luminescence (time after treatment 30 h)
23 | Cc1ccsc1C(=CCCN1CCC[C@@H](C(=O)O)C1)c1sccc1C | 1.09 and 1.11 | 1.06 and 1.04
24 | CC[n+]1c(-c2ccccc2)c2cc(N)ccc2c2ccc(N)cc21 | 1.04 and 0.392 | 0.753 and 0.388
25 | O=C1OC(CN2CCOCC2)CN1/N=C/c1ccc([N+](=O)[O-])o1 (stereo unspecified) | 0.868 and 0.678 | 1.2 and 0.716
26 | O=C(CNc1ccc2ccccc2c1)N/N=C/c1cc(Br)c(O)c(Br)c1O | 0.824 | 0.87
27 | CC[C@H]1CN(c2nc(N)c(C(N)=O)nc2Cl)CCN1C1CCN(Cc2ccc(Cl)cc2)CC1 | 0.96 | 1.01
28 | CC(C)(C(=O)NCC(F)(F)C(F)(F)F)C(=O)N[C@@H]1C(=O)Nc2ccccc2-c2ccccc21 | 0.878 | 0.845
29 | O=C(O)[C@]1(O)C[C@@H](O)[C@@H](O)[C@H](O)C1 | 0.981 | 0.935
30 | Cc1cc(C)c(CNC(=O)c2cc(-c3ccc(N4CCN(C)CC4)nc3)cc3c2c(C)cn3C(C)C)c(=O)[nH]1 | 0.757 | 0.841
31 | CNCCCN1c2ccccc2CCc2ccccc21 | 0.586 | 0.551
32 | Nc1nc(O)c2ncn(CCC(CO)CO)c2n1 | 1.03 | 0.846
33 | Fc1ccc([C@@H]2CCNC[C@H]2COc2ccc3c(c2)OCO3)cc1 | 1.16 and 0.525 | 0.921 and 0.539
34 | Nc1ccc(S(=O)(=O)NCCc2ccccc2)cc1 | 1.03 | 1
35 | Cn1c(O)c(C2=c3ccccc3=NC2=O)c2ccccc21 | 0.163 | 0.127
36 | O=c1[nH]cnc2c1ncn2[C@H]1CC[C@@H](CO)O1 | 0.976 and 0.97 | 0.956 and 0.774
37 | CN(C/C=C/C#CC(C)(C)C)Cc1cccc2ccccc12 | 0.995 and 0.883 | 0.98 and 1.01
38 | NCCC[C@H](N)CC(=O)N[C@H]1CNC(=O)[C@H]([C@H]2C[C@H](O)NC(N)=N2)NC(=O)/C(=C/NC(N)=O)NC(=O)[C@H](CO)NC(=O)[C@H](CO)NC1=O | 1.11 | 0.978
39 | Nc1nc(Nc2ccc3c(c2)CCC(N2CCCC2)CC3)nn1-c1cc2c(nn1)-c1ccccc1CCC2 (stereo unspecified) | 0.438 | 0.375
40 | CCCC(=O)OCOC(=O)C1=C(C)NC(C)=C(C(=O)OC)C1c1cccc(Cl)c1Cl (stereo unspecified) | 1.14 and 1.2 | 0.98 and 1.15
41 | Cc1cccc(C(=O)NCN2CCN(c3ccccc3C#N)CC2)c1 | 1.16 | 0.887
42 | CN(C)CCCN1c2ccccc2CCc2ccccc21 | 0.687 | 0.623
43 | C[C@H]1COc2c(N3CCN(C)CC3)c(F)cc3c(=O)c(C(=O)O)cn1c23 | 0.954 and 1.02 | 1.04 and 1.12
44 | CC(=O)c1ccc2c(c1)[C@H](NC(=O)c1ccc(F)c(Cl)c1)[C@H](O)C(C)(C)O2 | 0.934 | 1.09

Row | SMILES | PER2::LUC luminescence (time after treatment 24 h) | PER2::LUC luminescence (time after treatment 30 h)
45 | NC(CO)C(=O)NNCc1ccc(O)c(O)c1O (stereo unspecified) | 1.04 | 1.1
46 | NC1(C(=O)O)CCc2cc(C(=O)O)ccc21 (stereo unspecified) | 0.992 | 0.984
47 | C=C1CCC2C(CC2(C)C)C(=O)CCC1O (stereo unspecified) | 1.03 | 1.02
48 | Nc1ccc2c3c(cccc13)C(=O)NC2=O | 0.904 | 1.03
49 | C/C=C1\[C@H]2C=C(C)C[C@]1(N)c1ccc(=O)[nH]c1C2 | 0.993 and 0.919 | 0.965 and 0.966
50 | CN1CCN(C2CCN(C(=O)Nc3cc(Oc4ccc(NC(=O)C5(C(=O)Nc6ccc(F)cc6)CC5)c(F)c4)ccn3)CC2)CC1 | 0.417 and 0.41 | 0.546 and 0.495
51 | C[N+](C)(C)CCO.[Cl-] | 1.14 | 0.914
52 | COc1cccc(-c2cc(=O)c3ccc(OC)cc3o2)c1 | 0.879 | 0.955
53 | FC(F)(F)c1cccc(-c2noc(-c3cc(-c4ccccc4)c(C(F)(F)F)s3)n2)c1 | 1.17 | 1.14
54 | CN1CCC(OC(c2ccccc2)c2ccccc2)CC1 | 0.918 | 0.816
55 | CCOC(=O)[C@H](CCc1ccccc1)N[C@@H](C)C(=O)N1Cc2cc(OC)c(OC)cc2C[C@H]1C(=O)O | 1.08 | 1.13
56 | O=C(Oc1cccc2cccnc12)c1ccccc1 | 0.981 | 0.956
57 | COc1cc(/C=C/C(=O)NCCn2c(C(F)(F)F)cc3ccccc32)cc(OC)c1OC | 0.876 | 0.967
58 | COC(=O)c1ccc2c(C(=Nc3ccc(N(C)C(=O)CN4CCN(C)CC4)cc3)c3ccccc3)c(O)[nH]c2c1 | 0.421 | 0.285
59 | C[C@@H]1CN(Cc2ncccn2)C[C@H]1c1nc2c(cnn2C2CCOCC2)c(=O)[nH]1 | 0.969 | 1.01
60 | Cn1cc(-c2ccc3nnc(Sc4ccc5ncccc5c4)n3n2)cn1 | 1.07 | 0.945
61 | Clc1ccc(Nc2nnc(Cc3ccncc3)c3ccccc23)cc1 | 0.783 | 0.673
62 | O=C1NC(=O)/C(=C/c2cccc(C(F)(F)F)c2)S1 | 1.02 | 1.06
63 | Cc1cc(O)c2c(c1)C(=O)c1cc(O)cc(O)c1C2=O | 1.18 | 1.2
64 | CC(C)CN(C[C@@H](O)[C@H](Cc1ccccc1)NC(=O)O[C@H]1CO[C@H]2OCC[C@H]21)S(=O)(=O)c1ccc(N)cc1 | 1.05 | 1.06
65 | Cc1cc2nc3c(=O)[nH]c(=O)nc-3n(CC(O)C(O)C(O)COP(=O)(O)O)c2cc1C (stereo unspecified) | 0.997 | 0.975
66 | COc1cc(/C=C/C(=O)CC(=O)/C=C/c2ccc(O)c(OC)c2)ccc1O | 0.568 | 0.879

Row | SMILES | PER2::LUC luminescence (time after treatment 24 h) | PER2::LUC luminescence (time after treatment 30 h)
67 | O=C(O)CSCC(=O)NC1CCSC1=O (stereo unspecified) | 0.896 | 0.847
68 | Cc1cc2c(F)c(Oc3ncnn4cc(OC[C@@H](C)O)c(C)c34)ccc2[nH]1 | 0.981 and 0.929 | 0.917 and 0.933
69 | CC(C)=CCOc1cc2oc(=O)ccc2cc1O | 0.944 | 1.04
70 | O=C1c2cccc3c2[C@H](CCC3)CN1[C@@H]1CN2CCC1CC2 | 0.767 | 0.668
71 | CCCCCCN(CCCCCC)C(=O)Cc1c(-c2ccc(Cl)cc2)[nH]c2ccc(Cl)cc12 | 0.985 | 0.959
72 | NCC[C@H](O)C(=O)N[C@@H]1C[C@H](N)[C@@H](O[C@H]2O[C@H](CN)[C@@H](O)[C@H](O)[C@H]2O)[C@H](O)[C@H]1O[C@H]1O[C@H](CO)[C@@H](O)[C@H](N)[C@H]1O | 1.08 and 0.691 | 0.942 and 0.938
73 | COc1ccc2c(c1)OC[C@@H](Cc1ccc(OC)c(OC)c1)[C@H]2O | 0.919 | 0.852
74 | CC(C)C(=O)Nc1ccc([N+](=O)[O-])c(C(F)(F)F)c1 | 0.959 | 1.17
75 | Cn1cnc([N+](=O)[O-])c1Sc1ncnc2[nH]cnc12 | 0.845 | 0.837
76 | CC(=O)Oc1cc2c(s1)CCN(C(C(=O)C1CC1)c1ccccc1F)C2 (stereo unspecified) | 1.03 | 0.985
77 | COc1c2c(nc3ccccc13)OC(C(C)(O)CO)C2 (stereo unspecified) | 1.11 | 1.08
78 | C#CCCC(=O)O | 1.07 | 0.985
79 | CC(=O)Oc1ccc(O)cc1 | 0.907 | 1.01
80 | CC1(C)CCC2=C(O1)c1ccccc1C(=O)C2=O | – | 0.807 and 0.31
81 | CC(=O)OCC[N+](C)(C)C | 1.01 | 1.07
82 | S=C(NCc1ccc2c(c1)OCO2)N1CCN(c2ncnc3c2oc2ccccc23)CC1 | 0.176 | 0.229
83 | O=C(O)c1nc2cc(Cl)c(Cl)cc2nc1O | 1.07 | 0.988
84 | CCC(=O)NC1CCc2cccc(OC)c2C1 (stereo unspecified) | 0.911 | 0.961
85 | CC(=O)O[C@H]1C[C@@H](OC(C)=O)C(C)(C)C2CC(=O)[C@]3(C)C(CC[C@@]4(C)[C@H](c5ccoc5)OC(=O)[C@H]5O[C@]543)[C@]21C (stereo partly specified) | 0.894 | 0.926
86 | Ic1cccc(/C=N/Nc2nc(N3CCOCC3)nc(N(c3ccccc3)c3ccccc3)n2)c1 | 1.3 | 1.15
